{
  "source": "the supplement of paper PMC8728848",
  "binders": {"B1": {"name": "Als3-41 (Candida albicans) (protein)", "chain": "KTITGVFNSFNSLTWSNAATYNYKGPGTPTWNAVLGWSLDGTSASPGDTFTLNMPCVFKFTTSQTSVDLTAHGVKYATCQFQAGEEFMTFSTLTCTVSNTLTPSIKALGTVTLPLAFNVGGTGSSVDLEDSKCFTAGTNTVTFNDGGKKISINVDFERSNVDPKGYLTDSRVIPSLNKVSTLFVAPQCANGYTSGTMGFANTYGDVQIDCSNIHVGITKGLNDWNYPVSSESFSYTKTCSSNGIFITYKNVPAGYRPFVDAYISATDVNSYTLSYANEYTCAGGYWQRAPFTLRWTGYRNSDAGSNGIVIVATTRTVTDSTTAVTTLPFDPNRDKTKTIEILKPIPTTTITTSYVGVTTSYLTKTAPIGETATVIVD"}},
  "assay_in_all_cases": "glycan array binding signal (z-score within array); higher = stronger binding",
  "settings_in_all_cases": "glycan notation: IUPAC condensed, linker removed",
  "key": {"[1]": {"molecular_target": "Gal(b1-3)[Fuc(a1-4)]GlcNAc(b1-3)Gal(b1-4)[Fuc(a1-3)]GlcNAc", "method_in_brief": "(§1)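 The binding signal is a Z-score computed within each array. Data were drawn from 3228 arrays in the Consortium for Functional Glycomics database, restricted to those with a known protein sequence. Scores were averaged over arrays of the same protein sequence at different concentrations or buffers, and over linkers, and negative values can be taken as non-binding.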"}, "[2]": {"molecular_target": "Gal(b1-3)[Fuc(a1-4)]GlcNAc(b1-6)GalNAc", "method_in_brief": "as §1"}, "[3]": {"molecular_target": "Gal(b1-3)[GlcNAc(b1-6)]GalNAc", "method_in_brief": "as §1"}, "[4]": {"molecular_target": "Gal(b1-3)[Neu5Ac(a2-6)]GalNAc", "method_in_brief": "as §1"}, "[5]": {"molecular_target": "Gal(b1-3)[Neu5Ac(a2-6)]GlcNAc(b1-4)Gal(b1-4)Glc", "method_in_brief": "as §1"}, "[6]": {"molecular_target": "Gal(b1-3)[Neu5Ac(b2-6)]GalNAc", "method_in_brief": "as §1"}, "Gal(b1-4)Gal": {"molecular_target": "Gal(b1-4)Gal", "method_in_brief": "as §1"}, "[7]": {"molecular_target": "Gal(b1-4)GalNAc(a1-3)[Fuc(a1-2)]Gal(b1-4)GlcNAc", "method_in_brief": "as §1"}, "[8]": {"molecular_target": "Gal(b1-4)GalNAc(b1-3)[Fuc(a1-2)]Gal(b1-4)GlcNAc", "method_in_brief": "as §1"}, "Gal(b1-4)Glc": {"molecular_target": "Gal(b1-4)Glc", "method_in_brief": "as §1"}, "Gal(b1-4)Glc6S": {"molecular_target": "Gal(b1-4)Glc6S", "method_in_brief": "as §1"}, "Gal(b1-4)GlcNAc": {"molecular_target": "Gal(b1-4)GlcNAc", "method_in_brief": "as §1"}, "[9]": {"molecular_target": "Gal(b1-4)GlcNAc(a1-6)Gal(b1-4)GlcNAc", "method_in_brief": "as §1"}, "Gal(b1-4)GlcNAc(b1-2)Man": {"molecular_target": "Gal(b1-4)GlcNAc(b1-2)Man", "method_in_brief": "as §1"}, "[10]": {"molecular_target": "Gal(b1-4)GlcNAc(b1-2)Man(a1-3)Man(b1-4)GlcNAc(b1-4)GlcNAc", "method_in_brief": "as §1"}, "[11]": {"molecular_target": "Gal(b1-4)GlcNAc(b1-2)Man(a1-3)[Gal(b1-4)GlcNAc(b1-2)Man(a1-6)]Man(b1-4)GlcNAc(b1-4)GlcNAc", "method_in_brief": "as §1"}, "[12]": {"molecular_target": "Gal(b1-4)GlcNAc(b1-2)Man(a1-3)[Gal(b1-4)GlcNAc(b1-2)Man(a1-6)]Man(b1-4)GlcNAc(b1-4)[Fuc(a1-6)]GlcNAc", "method_in_brief": "as §1"}, "[13]": {"molecular_target": "Gal(b1-4)GlcNAc(b1-2)Man(a1-3)[Gal(b1-4)GlcNAc(b1-2)Man(a1-6)][Gal(b1-4)GlcNAc(b1-4)]Man(b1-4)GlcNAc(b1-4)[Fuc(a1-6)]GlcNAc", "method_in_brief": "as §1"}, "[14]": {"molecular_target": "Gal(b1-4)GlcNAc(b1-2)Man(a1-3)[Gal(b1-4)GlcNAc(b1-2)Man(a1-6)][GlcNAc(b1-4)]Man(b1-4)GlcNAc(b1-4)[Fuc(a1-6)]GlcNAc", "method_in_brief": "as §1"}, "[15]": {"molecular_target": "Gal(b1-4)GlcNAc(b1-2)Man(a1-3)[GlcNAc(b1-2)Man(a1-6)]Man(b1-4)GlcNAc(b1-4)GlcNAc", "method_in_brief": "as §1"}, "[16]": {"molecular_target": "Gal(b1-4)GlcNAc(b1-2)Man(a1-3)[GlcNAc(b1-4)][Gal(b1-4)GlcNAc(b1-2)Man(a1-6)]Man(b1-4)GlcNAc(b1-4)GlcNAc", "method_in_brief": "as §1"}, "[17]": {"molecular_target": "Gal(b1-4)GlcNAc(b1-2)Man(a1-3)[Man(a1-6)]Man(b1-4)GlcNAc(b1-4)GlcNAc", "method_in_brief": "as §1"}, "[18]": {"molecular_target": "Gal(b1-4)GlcNAc(b1-2)Man(a1-6)Man(b1-4)GlcNAc(b1-4)GlcNAc", "method_in_brief": "as §1"}, "[19]": {"molecular_target": "Gal(b1-4)GlcNAc(b1-2)Man(a1-6)[GlcNAc(b1-2)Man(a1-3)]Man(b1-4)GlcNAc(b1-4)GlcNAc", "method_in_brief": "as §1"}, "[20]": {"molecular_target": "Gal(b1-4)GlcNAc(b1-2)Man(a1-6)[Man(a1-3)]Man(b1-4)GlcNAc(b1-4)GlcNAc", "method_in_brief": "as §1"}, "[21]": {"molecular_target": "Gal(b1-4)GlcNAc(b1-2)[Gal(b1-4)GlcNAc(b1-4)]Man(a1-3)[Gal(b1-4)GlcNAc(b1-2)Man(a1-6)]Man(b1-4)GlcNAc(b1-4)GlcNAc", "method_in_brief": "as §1"}, "[22]": {"molecular_target": "Gal(b1-4)GlcNAc(b1-2)[Gal(b1-4)GlcNAc(b1-4)]Man(a1-3)[Gal(b1-4)GlcNAc(b1-2)[Gal(b1-4)GlcNAc(b1-6)]Man(a1-6)]Man(b1-4)GlcNAc(b1-4)GlcNAc", "method_in_brief": "as §1"}, "[23]": {"molecular_target": "Gal(b1-4)GlcNAc(b1-2)[Gal(b1-4)GlcNAc(b1-4)]Man(a1-3)[GlcNAc(b1-4)][Gal(b1-4)GlcNAc(b1-2)Man(a1-6)]Man(b1-4)GlcNAc(b1-4)GlcNAc", "method_in_brief": "as §1"}, "[24]": {"molecular_target": "Gal(b1-4)GlcNAc(b1-2)[Gal(b1-4)GlcNAc(b1-4)]Man(a1-3)[GlcNAc(b1-4)][Gal(b1-4)GlcNAc(b1-2)[Gal(b1-4)GlcNAc(b1-6)]Man(a1-6)]Man(b1-4)GlcNAc(b1-4)GlcNAc", "method_in_brief": "as §1"}, "[25]": {"molecular_target": "Gal(b1-4)GlcNAc(b1-2)[Gal(b1-4)GlcNAc(b1-6)]Man(a1-6)[Gal(b1-4)GlcNAc(b1-2)Man(a1-3)]Man(b1-4)GlcNAc(b1-4)GlcNAc", "method_in_brief": "as §1"}, "[26]": {"molecular_target": "Gal(b1-4)GlcNAc(b1-2)[Gal(b1-4)GlcNAc(b1-6)]Man(a1-6)[Gal(b1-4)GlcNAc(b1-2)Man(a1-3)]Man(b1-4)GlcNAc(b1-4)[Fuc(a1-6)]GlcNAc", "method_in_brief": "as §1"}, "[27]": {"molecular_target": "Gal(b1-4)GlcNAc(b1-2)[Gal(b1-4)GlcNAc(b1-6)]Man(a1-6)[GlcNAc(b1-4)][Gal(b1-4)GlcNAc(b1-2)Man(a1-3)]Man(b1-4)GlcNAc(b1-4)GlcNAc", "method_in_brief": "as §1"}, "[28]": {"molecular_target": "Gal(b1-4)GlcNAc(b1-2)[Gal(b1-4)GlcNAc(b1-6)]Man(a1-6)[GlcNAc(b1-4)][Gal(b1-4)GlcNAc(b1-2)[Gal(b1-4)GlcNAc(b1-4)]Man(a1-3)]Man(b1-4)GlcNAc(b1-4)[Fuc(a1-6)]GlcNAc", "method_in_brief": "as §1"}, "[29]": {"molecular_target": "Gal(b1-4)GlcNAc(b1-3)Gal(b1-3)GalNAc", "method_in_brief": "as §1"}, "[30]": {"molecular_target": "Gal(b1-4)GlcNAc(b1-3)Gal(b1-3)GlcNAc", "method_in_brief": "as §1"}, "[31]": {"molecular_target": "Gal(b1-4)GlcNAc(b1-3)Gal(b1-4)Glc", "method_in_brief": "as §1"}, "[32]": {"molecular_target": "Gal(b1-4)GlcNAc(b1-3)Gal(b1-4)GlcNAc", "method_in_brief": "as §1"}, "[33]": {"molecular_target": "Gal(b1-4)GlcNAc(b1-3)Gal(b1-4)GlcNAc(b1-2)Man(a1-3)[Gal(b1-4)GlcNAc(b1-3)Gal(b1-4)GlcNAc(b1-2)Man(a1-6)]Man(b1-4)GlcNAc(b1-4)GlcNAc", "method_in_brief": "as §1"}},
  "note": "The list shows a part of the results.",
  "data": [
    {"binder": "B1", "values": [
      {"measurement": "glycan array binding signal (z-score)", "setting": "[1]", "result": -0.357},
      {"measurement": "glycan array binding signal (z-score)", "setting": "[2]", "result": 0.486},
      {"measurement": "glycan array binding signal (z-score)", "setting": "[3]", "result": -0.166},
      {"measurement": "glycan array binding signal (z-score)", "setting": "[4]", "result": -0.251},
      {"measurement": "glycan array binding signal (z-score)", "setting": "[5]", "result": -0.317},
      {"measurement": "glycan array binding signal (z-score)", "setting": "[6]", "result": -0.359},
      {"measurement": "glycan array binding signal (z-score)", "setting": "Gal(b1-4)Gal", "result": -0.215},
      {"measurement": "glycan array binding signal (z-score)", "setting": "[7]", "result": -0.238},
      {"measurement": "glycan array binding signal (z-score)", "setting": "[8]", "result": -0.258},
      {"measurement": "glycan array binding signal (z-score)", "setting": "Gal(b1-4)Glc", "result": -0.273},
      {"measurement": "glycan array binding signal (z-score)", "setting": "Gal(b1-4)Glc6S", "result": -0.217},
      {"measurement": "glycan array binding signal (z-score)", "setting": "Gal(b1-4)GlcNAc", "result": -0.217},
      {"measurement": "glycan array binding signal (z-score)", "setting": "[9]", "result": 0.128},
      {"measurement": "glycan array binding signal (z-score)", "setting": "Gal(b1-4)GlcNAc(b1-2)Man", "result": -0.112},
      {"measurement": "glycan array binding signal (z-score)", "setting": "[10]", "result": -0.116},
      {"measurement": "glycan array binding signal (z-score)", "setting": "[11]", "result": -0.27},
      {"measurement": "glycan array binding signal (z-score)", "setting": "[12]", "result": 0.725},
      {"measurement": "glycan array binding signal (z-score)", "setting": "[13]", "result": -0.162},
      {"measurement": "glycan array binding signal (z-score)", "setting": "[14]", "result": -0.306},
      {"measurement": "glycan array binding signal (z-score)", "setting": "[15]", "result": -0.06},
      {"measurement": "glycan array binding signal (z-score)", "setting": "[16]", "result": -0.325},
      {"measurement": "glycan array binding signal (z-score)", "setting": "[17]", "result": -0.026},
      {"measurement": "glycan array binding signal (z-score)", "setting": "[18]", "result": 0.552},
      {"measurement": "glycan array binding signal (z-score)", "setting": "[19]", "result": -0.102},
      {"measurement": "glycan array binding signal (z-score)", "setting": "[20]", "result": -0.291},
      {"measurement": "glycan array binding signal (z-score)", "setting": "[21]", "result": -0.251},
      {"measurement": "glycan array binding signal (z-score)", "setting": "[22]", "result": -0.3},
      {"measurement": "glycan array binding signal (z-score)", "setting": "[23]", "result": -0.351},
      {"measurement": "glycan array binding signal (z-score)", "setting": "[24]", "result": -0.386},
      {"measurement": "glycan array binding signal (z-score)", "setting": "[25]", "result": -0.306},
      {"measurement": "glycan array binding signal (z-score)", "setting": "[26]", "result": 1.31},
      {"measurement": "glycan array binding signal (z-score)", "setting": "[27]", "result": -0.357},
      {"measurement": "glycan array binding signal (z-score)", "setting": "[28]", "result": -0.29},
      {"measurement": "glycan array binding signal (z-score)", "setting": "[29]", "result": -0.255},
      {"measurement": "glycan array binding signal (z-score)", "setting": "[30]", "result": -0.341},
      {"measurement": "glycan array binding signal (z-score)", "setting": "[31]", "result": -0.303},
      {"measurement": "glycan array binding signal (z-score)", "setting": "[32]", "result": -0.277},
      {"measurement": "glycan array binding signal (z-score)", "setting": "[33]", "result": 6.2}
    ]}
  ]
}
